Source: PubChem BioAssay AID720542 (National Center for Advancing Translational Sciences (NCATS), 2013)
The whole screen tested about 360,000 compounds, of which about 740 (0.21%) were called active. Inconclusive results, whose numbers are uncertain, are shown with a selection of clear calls. The call rests on the fitted dose curve; in most records, active means well fitted inhibition curve with a large enough effect; inconclusive means small, poorly fitted or top-dose-only effect; inactive means no such curve, though single readings can be large or run the other way. Potencies of inconclusive entries are left out as doubtful fits.

test system: Plasmodium falciparum AMA1 (3D7) - RON2 peptide interaction; assay: qHTS for Inhibitors of AMA1-RON; Towards Development of Antimalarial Drug Lead: Primary Screen; settings: AlphaScreen AMA1-biotinylated RON2 peptide binding; activity change, negative = inhibition: at 58.2 µM (top of the series) unless noted; further: nearly all actives have a fitted effect of over 45% in size;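 on activity change, negative = inhibition: 0% = vehicle wells and -100% = peptide control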
In short: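 AMA1 (3D7) with his tag at 25 nM final met compounds first, then biotinylated RON2 peptide at 25 nM; detection used donor plus acceptor beads, 10 µg/mL apiece, read by AlphaScreen after 30 min at room temperature.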
Potency means the concentration at half of the fitted maximal effect; tags describe the fitted curve by direction and shape.

SMILES	activity change, negative = inhibition	Potency
CCCCc1cc2c(cc1NC(=O)CN1CCCCC1)OCCO2	inactive: -11.8%	
CCOc1cc(CNc2ccc(N3CCCC3)cc2)cc(Cl)c1OC		active: 20 µM
Cc1ccn(C(C)CC(=O)N2CCc3ccccc32)n1 (stereo not given)	inactive: -7.09%	
Cc1cc(C(F)F)n2nc(C(=O)Nc3cccc(S(=O)(=O)N4CCOCC4)c3)nc2n1		inconclusive [inhibitor, single point]
COc1ccc2c(c1OC)C(=O)N1C2SC[C@H]1C(=O)NC1CCCCC1 (stereo not given in full)	inactive: -3.29%	
Fc1ccc(C2=Nc3cccc4cccc(c34)N2)cc1	inactive: 2.13%	
CNS(=O)(=O)c1cc(O)c2c(S(=O)(=O)NC)cccc2c1	inactive: 1.71%	
O=C1C=C(OCCF)CC(c2cccc(Cl)c2)O1 (stereo not given)	inactive: -6.83%	
COc1ccc(NC(C)(C)c2nnnn2-c2c(C)cccc2C)cc1		inconclusive [inhibitor, partial curve]
O=C1c2cccc(NCCNCCO)c2C(=O)c2cccc(NCCNCCO)c21		active: 44.7 µM
O=S(=O)(Nc1ccc(N2CCOCC2)cc1)c1ccc2ccccc2c1	inconclusive: -11.3% [inhibitor]	
CC(=O)c1cc2c(cc1NC(=O)C1CC1)OCO2	inactive: 4.39%	
Nc1nc(-c2ccccn2)nc(N)c1Cc1c(F)cccc1Cl		inconclusive [inhibitor, single point]
COc1ccc(N2CCN(C(=O)C(Cc3ccccc3)NC(=O)c3ccccc3)CC2)cc1 (stereo not given)		inconclusive [inhibitor, single point]
ON1C(c2ccc(Cl)cc2Cl)N(O)[C@H]2CCCC[C@H]21 (stereo not given in full)		inconclusive [inhibitor, partial curve]
Cc1c(C)n(Cc2ccccc2)c2ccc(C(=O)OCCN(C)C)cc12		inconclusive [inhibitor, single point]
CCC1CCCCN1c1nc(-c2cccc(OC)c2O)nc2ccccc12 (stereo not given)		inconclusive [inhibitor, single point]
COc1ccc(CN2CCN(CCCCOc3ccc(Cl)cc3)CC2)c(OC)c1OC		inconclusive [inhibitor, partial curve]

SMILES	activity change, negative = inhibition	Potency
CC1CCCN(C(=O)COC(=O)c2cc(Br)ccc2O)C1 (stereo not given)		inconclusive [inhibitor, partial curve, poor fit]
CCOC(=O)C1(Cc2cccc(OC)c2)CCN(Cc2cccc(OCC)c2O)CC1		inconclusive [inhibitor, full curve]
O=C1C2Sc3[nH]c(=O)sc3C(c3ccccc3)C2C(=O)N1c1ccccc1 (stereo not given)	inactive: 101%	
O=C(Nc1ccc(Nc2ccccc2)cc1)c1ccc(Cl)c([N+](=O)[O-])c1		inconclusive [inhibitor, partial curve]
Cc1ccc(N2CCN(/N=C/c3ccccc3[N+](=O)[O-])CC2)cc1		inconclusive [inhibitor, partial curve]
CCOc1ccccc1N1Cc2cc(C)c(C)cc2C1	inactive: -12.3%	
O=[N+]([O-])c1ccc(Oc2cccc(Br)c2)c2ccncc12		inconclusive [inhibitor, partial curve]
O=c1cc(-c2ccccc2)nc2cc(-c3ccc(Br)cc3)[nH]n12	inactive: 12.2%	
O=C(CSc1nnc2ccc(-c3ccc(Br)cc3)nn12)NCC1CCCO1 (stereo not given)		inconclusive [inhibitor, single point]
Cc1ccc(-c2nn(-c3ccccc3)cc2CNCc2ccccc2)cc1		inconclusive [inhibitor, partial curve]
C#CCOCCOCCOCCNc1nc(N2CCN(C(=O)Cn3cc(CC(C)O)nn3)CC2)nc(N2CCN(C(=O)[C@H](C)n3cc(CCC(=O)O)nn3)CC2)n1 (stereo not given in full)	inactive: -0.915%	
O=[N+]([O-])c1cc2c(c([N+](=O)[O-])c1)Nc1ccccc1O2		inconclusive [inhibitor, partial curve]
O=[N+]([O-])c1ccc(CN2CCN(c3ccc(F)cc3)CC2)o1		inconclusive [inhibitor, partial curve]
COC(=O)c1ccc2c(c1)C(C)(C)C(/C=C/c1ccc(O)cc1)=[N+]2C		inconclusive [inhibitor, partial curve, poor fit]
C/C(=N\N1CCN(c2ccc(Cl)cc2)CC1)c1cccc([N+](=O)[O-])c1		inconclusive [inhibitor, single point]
CCCn1c(=O)c(C(=O)N/N=C/c2ccc(F)cc2)c(O)c2ccccc21	inactive: 6.32%	
CCCCn1c(NC(=O)c2ccco2)c(S(=O)(=O)c2ccc(C)cc2)c2nc3ccccc3nc21	inactive: -8.66%	
